Test results from the supplement of paper PMC5919970.
Where a name gives a salt, the structure may show the parent alone. Whole data set: some 2,000 compounds, median “fractional viability relative to vehicle” near 0.91, cut for the lowest 2% near 0.045. This is one part of the list.

Tested on: TYKNU
Test: fractional viability relative to vehicle; TYKNU is a high-grade serous ovarian cancer line; higher = less growth inhibition
Conditions: 72 h
Method in brief: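 TYKNU control cells or lentiCRISPRv2 knockout derivatives were plated at 500 cells per well in duplicate into drug-stamped 384-well plates holding a ~2100-compound library at 2 or 10 μM. Culture was in RPMI 1640 with 10% FBS at 37 °C in 5% CO2, with 72 h of drug treatment. Viability was measured by Cell Titer Glo luminescence, and the averaged duplicate treatment wells were normalised to duplicate control wells at the same plate position.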

[1] = 2uM, genotype: DNM1L knockout (sgDNM1L #1)
[2] = 2uM, genotype: sgCTRLA1 (non-targeting control)
[3] = 10uM, genotype: DNM1L knockout (sgDNM1L #1)
[4] = 10uM, genotype: sgCTRLA1 (non-targeting control)

SMILES	fractional viability [1]	fractional viability [2]	fractional viability [3]	fractional viability [4]
Cc1ccccc1C(C(=O)NC1CCCCC1)N(C(=O)Cn1ccnc1C)c1cccc(F)c1 (stereo not drawn)	0.86	1.02	0.801	1.01
O=C(O)c1cc(=O)[nH]c(=O)[nH]1 [Orotic acid (6-Carboxyuracil)]	0.916	1.04	1.02	1.12
O=C(Nc1ccc(S(=O)(=O)Nc2ccccc2Cl)c(Cl)c1)c1ccccn1	0.711	0.925	0.692	0.771
Oc1ccc(-c2nc(-c3ccc(F)cc3)c(-c3ccncc3)[nH]2)cc1	1.28	1.05	1.02	0.933
Cc1ccc(C(=O)Nc2ccc(CN3CCN(C)CC3)c(C(F)(F)F)c2)cc1C#Cc1cnc2[nH]ncc2c1	0.214	0.169	0.0362	0.0116
O=C(NC[C@H](O)CO)c1ccncc1Nc1ccc(I)cc1F	0.333	0.318	0.212	0.205
Cc1ccc(-n2nc(C(C)(C)C)cc2NC(=O)NCc2cc(F)ccc2Oc2ccc3c(cnn3CCO)c2)cc1 [Pexmetinib (ARRY-614)]	0.541	0.748	0.4	0.312
Cc1ncc([N+](=O)[O-])n1CC(C)O (stereo not drawn) [Secnidazole]	1.12	1.03	1.36	1.22
OCCn1cc(-c2cnc3nnn(Cc4ccc5ncccc5c4)c3n2)cn1	1.03	1.13	0.949	1.18
C[C@]12CCC(=O)C=C1[C@@H]1C[C@@H]1[C@H]1[C@@H]3[C@@H]4C[C@@H]4[C@@]4(CCC(=O)O4)[C@@]3(C)CC[C@@H]12 [Drospirenone]	1.14	0.966	0.869	0.875
N#Cc1cc(CN2CCC(Nc3ncnc4sc(Cl)cc34)CC2)ccc1F	0.816	1.01	0.596	0.553
COc1ccc2cc([C@H](C)C(=O)O)ccc2c1 [Naproxen]	1.11	1.14	0.961	1.02
C=CC1=C(C(=O)O)N2C(=O)[C@@H](NC(=O)/C(=N\O)c3csc(N)n3)[C@H]2SC1 [Cefdinir]	0.915	1.01	0.932	1.03
CN1C(CCl)Nc2cc(Cl)c(S(N)(=O)=O)cc2S1(=O)=O (stereo not drawn) [Methyclothiazide]	1.11	1.22	0.891	1.13
OCc1ccccc1O[C@@H]1O[C@H](CO)[C@@H](O)[C@H](O)[C@H]1O [Salicin]	0.9	1.15	0.831	1.18
C=C1CC[C@@H]2[C@](C)(CO)[C@H](O)CC[C@@]2(C)[C@@H]1C/C=C1/C(=O)OC[C@H]1O [Andrographolide]	0.729	0.927	0.152	0.143
Cc1cn([C@H]2C=C[C@@H](CO)O2)c(=O)[nH]c1=O [Stavudine (d4T)]	0.736	0.926	0.664	0.778
CC(=O)NS(=O)(=O)c1ccc(N)cc1 [Sulfacetamide Sodium]	1.18	1.07	0.88	0.923
CC/C(=C(\c1ccc(O)cc1)c1ccc(OCCNC)cc1)c1ccccc1 [Endoxifen HCl]	0.74	0.829	0.291	0.172

SMILES	fractional viability [1]	fractional viability [2]	fractional viability [3]	fractional viability [4]
Cc1ccc(S(=O)(=O)Cc2nc(-c3ccc(C(=O)NCc4cccnc4)cc3)oc2C)cc1	0.0788	0.0847	0.0667	0.0818
COc1cccc2c1C(=O)c1c(O)c3c(c(O)c1C2=O)C[C@@](O)(C(C)=O)C[C@@H]3O[C@H]1C[C@H](N)[C@H](O)[C@H](C)O1 [Daunorubicin HCl]	0.392	0.254	0.0554	0.0241
CNC(=O)c1cc(Oc2ccc(NC(=O)Nc3ccc(Cl)c(C(F)(F)F)c3)cc2)ccn1 [Sorafenib]	0.729	0.795	0.301	0.197
CNC(=O)c1cc(Oc2ccc(NC(=O)Nc3ccc(Cl)c(C(F)(F)F)c3)cc2)ccn1 [Sorafenib Tosylate]	0.918	0.915	0.371	0.205
CNC(=O)c1ccccc1Nc1cc(Nc2ccc(N3CCOCC3)cc2OC)ncc1C(F)(F)F	0.645	0.724	0.323	0.328
CN(c1ccccc1CNc1nc(Nc2ccc3c(c2)CC(=O)N3)ncc1C(F)(F)F)S(C)(=O)=O	0.565	0.771	0.214	0.18
CCN(CC)CC(=O)Nc1c(C)cccc1C [Lidocaine]	1.04	1.17	1.04	1.17
CC(=O)c1cc2c(o1)C(=O)c1ccccc1C2=O [Napabucasin]	0.0305	0.0196	0.018	0.0135
CC(C=CC(=O)NO)=CC(C)C(=O)c1ccc(N(C)C)cc1 (stereo not drawn) [Trichostatin A (TSA)]	0.1	0.151	0.118	0.153
CC(=O)OCC(=O)[C@@]12OC(C)(C)O[C@@H]1C[C@H]1[C@@H]3C[C@H](F)C4=CC(=O)C=C[C@]4(C)[C@@]3(F)[C@@H](O)C[C@@]12C [Fluocinonide]	1.22	1.08	0.801	0.941
c1ccc2c(CC3=NCCN3)cccc2c1 [Naphazoline HCl]	0.971	1.18	0.671	1.07
COc1nc(OCc2cccc(-c3ccccc3)c2C)ccc1CNCCNC(C)=O [PD-1/PD-L1 inhibitor 2]	0.852	0.872	0.501	0.0875
COc1cc2nccc(Oc3ccc(NC(=O)NC4CC4)c(Cl)c3)c2cc1C(N)=O [Lenvatinib (E7080)]	0.933	1.04	0.815	1.06
c1nc2c(NC3CCCCC3)nc(Nc3ccc(N4CCOCC4)cc3)nc2[nH]1 [Reversine]	0.545	0.579	0.229	0.216
CNc1cc(-c2cccc(Cl)c2Cl)nc(N)n1	0.294	0.379	0.252	0.165
C[C@@H](O[C@H]1OCCN(Cc2nn(P(=O)(O)O)c(=O)[nH]2)[C@H]1c1ccc(F)cc1)c1cc(C(F)(F)F)cc(C(F)(F)F)c1 [Fosaprepitant dimeglumine salt]	0.96	1.02	0.454	0.875
CCC(C)(Oc1ccc(C2(c3ccc(OC(C)(CC)C(=O)O)cc3)CCCCC2)cc1)C(=O)O (stereo not drawn) [Clinofibrate]	1.04	1.07	0.917	1.13
Cc1c(CN2CCN(C(=O)[C@H](C)O)CC2)sc2c(N3CCOCC3)nc(-c3cnc(N)nc3)nc12	0.214	0.238	0.175	0.15
